# Over roughly 33,000 sequences, “E-score (-0.5 to 0.5)” has its median near -0.032; the highest 2% begin near 0.36. The list shows a part of the results.
# Molecular target: T1, Sko1 (UniProt Q02100)
# T1 sequence: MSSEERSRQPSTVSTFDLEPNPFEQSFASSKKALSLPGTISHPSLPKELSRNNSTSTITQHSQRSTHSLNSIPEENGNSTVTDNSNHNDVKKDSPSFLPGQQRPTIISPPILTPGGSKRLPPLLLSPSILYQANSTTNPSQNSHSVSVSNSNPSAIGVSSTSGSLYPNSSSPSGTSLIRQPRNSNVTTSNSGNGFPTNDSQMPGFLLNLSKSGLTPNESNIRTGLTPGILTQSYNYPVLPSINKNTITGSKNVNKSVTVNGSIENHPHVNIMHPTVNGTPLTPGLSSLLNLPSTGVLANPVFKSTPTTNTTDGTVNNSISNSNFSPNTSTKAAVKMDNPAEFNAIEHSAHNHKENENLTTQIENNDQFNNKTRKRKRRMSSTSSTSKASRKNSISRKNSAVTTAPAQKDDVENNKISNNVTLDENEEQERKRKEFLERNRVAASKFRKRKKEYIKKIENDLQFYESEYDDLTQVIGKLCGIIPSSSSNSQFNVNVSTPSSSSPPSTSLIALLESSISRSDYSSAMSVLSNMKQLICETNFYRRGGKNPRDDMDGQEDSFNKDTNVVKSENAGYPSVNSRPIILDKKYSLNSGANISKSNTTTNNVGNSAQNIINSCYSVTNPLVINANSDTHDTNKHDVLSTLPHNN
# Test: PBM E-score (8-mer binding enrichment) (E-score (-0.5 to 0.5)); higher = stronger / more preferred TF binding; most listed sequences are background and not binding sites
# Settings: protein concentration: 200 nM; construct: GST-full length
# How it was run: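 Universal all-10-mer Agilent arrays, double-stranded by primer extension on fresh or once-stripped slides, were probed with about 100-200 nM GST-tagged yeast transcription factors made by PURExpress. Fluorescent anti-GST detected bound protein, and masliner normalised the scans. E-scores from the Universal PBM Analysis Suite were given to each ungapped eight-base word pooled with its reverse complement.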
row,Sequence,PBM E-score
1,CTTGGCAA,-0.048
2,CAGATCTG,-0.12
3,AATTAAGT,0.146
4,AATTCAGA,0.046
5,CGACAAAC,0.00835
6,ACTGGAGC,-0.238
7,CGTCGTAC,0.316
8,GGCACGAA,0.0995
9,TCAAATAA,0.136
10,ATTTCTCA,-0.0375
11,ATGGGTTC,-0.132
12,AGGGTATA,0.0602
13,ACTGTAGA,0.0113
14,CAGGTCGC,-0.262
15,CGGGGTAC,-0.214
16,CTCCTTTC,-0.146
17,CAGCGTAC,-0.108
18,AAGCTTTA,0.0985
19,ACACTTCC,-0.107
20,GACCCAAC,-0.0945
21,CCAAGGCA,-0.287
22,ACCGTGTC,-0.238
23,GGGTCGAC,-0.147
24,CTCCGGCA,-0.0916
25,AATGTCGC,0.0807

row,Sequence,PBM E-score
1,GGTCGCAA,-0.046
2,GCGGGGGA,-0.292
3,ATCACTTG,0.0558
4,CCATCACC,-0.0201
5,ATATAGGA,0.0623
6,GCCTATCA,-0.153
7,ATGTGATC,0.214
8,CGTATAAA,0.357
9,GCGATTGA,0.0363
10,CTACGCGC,0.0742
11,GCGGTGAC,0.124
12,TAAGGCCA,-0.00406
13,TCTGCGAA,-0.017
14,CGAGCAAG,-0.129
15,ACAGTTCT,-0.157
16,ACGTGTCA,0.378
17,CCACAAGC,-0.217
18,CAACGCCG,-0.142
19,ACTCAGTA,0.0665
20,GACTCAGC,-0.124
21,CTACTCAA,0.156
22,AAGGCACC,-0.217
23,CCGTGTAA,-0.0449
24,GCGGGGCA,-0.341
25,CAGCTTTC,-0.0951

row,Sequence,PBM E-score
1,AACAGAAG,0.00835
2,GACGACCC,-0.0915
3,GCATCTAC,0.0103
4,CTGCTCTC,-0.0904
5,CGCCGTAC,-0.141
6,ACTCCGAG,-0.137
7,GAGGGTAA,-0.123
8,ACCTCGGG,-0.157
9,ACTCAATG,0.151
10,GTTTTATA,0.19
11,ACGATTCT,0.128
12,ACAAAACC,0.102
13,GACAGATC,-0.035
14,CATTTATC,0.127
15,AACTCCCT,0.00872
16,AAGCGGAG,-0.235
17,CTCCGTAA,0.0488
18,CGCGACAG,-0.21
19,CGCACAGA,-0.0087
20,CCCATCTC,-0.301
21,TGAACTAA,0.21
22,AATGTACC,-0.0961
23,CGTTTCCC,0.0898
24,CCTACTCA,-0.15
25,GGATAACC,-0.277

row,Sequence,PBM E-score
1,CTCGAGAG,-0.107
2,AAGTTATC,0.163
3,GACCTGAC,-0.13
4,ACAGTGAA,0.111
5,AGAGGGCG,-0.189
6,GTAGGAGA,-0.131
7,AAAGACAG,0.0482
8,GGCATAAA,-0.0292
9,CCCAGTAG,-0.0521
10,AGCCCCTA,-0.306
11,GAGGCCCA,-0.268
12,GAGATCGC,-0.0813
13,ACGGTGAG,-0.132
14,CCATGGTA,0.0201
15,CATCCTGA,0.0812
16,CCCCCAAA,-0.296
17,CCTCTGAG,-0.285
18,TACCGCAA,0.154
19,ACACGTTG,0.188
20,ACATCCCC,-0.0506
21,ATGCCCCG,-0.335
22,AGAAACGA,0.0679
23,CCTAAAGA,-0.0295
24,AGTGGCTA,-0.0564
25,ACGAACAC,0.0924

row,Sequence,PBM E-score
1,TGGAAACA,0.0344
2,GAGATTCA,-0.109
3,GTAATCGA,0.3
4,TATTATCA,0.203
5,CAATGACG,0.486
6,AGGCCTTA,-0.16
7,ATGTAAGC,0.0583
8,TCTAATCA,0.193
9,CATGCTTA,0.0146
10,CTACGTAG,0.449
11,AAGCGTCT,-0.326
12,GGATTTTA,0.106
13,AAATCCTG,0.00117
14,CACCGTAC,-0.071
15,CGGAACTC,-0.229
16,ACTATCAA,0.0225
17,CCAGCCGA,-0.29
18,ACAAGCGG,-0.209
19,ATGAGAAC,-0.0458
20,ATCATGAC,0.407
21,AATAGACC,-0.189
22,GATGTCAC,0.306
23,ACCGTAAT,0.201
24,AAGATCTT,0.00357
25,CGGCGTCA,0.241

row,Sequence,PBM E-score
1,CTTTTTAA,0.112
2,CTCTGCAG,-0.183
3,CAACTATG,0.0593
4,CGATTTCA,-0.0131
5,CAGGACTA,-0.147
6,CCCTTGAC,-0.237
7,CGTTTCCA,0.172
8,CTCGTTTA,0.0316
9,CTAGGGCC,-0.18
10,CCGATCAC,-0.0145
11,TAAACCGA,-0.162
12,CGTGGGGA,0.0768
13,AGGGCCAT,-0.112
14,GTTCGTCA,0.367
15,AGCCCTGC,-0.198
16,AACGGCTT,-0.317
17,GCAGGTGA,0.0519
18,CTCATGTC,0.00709
19,AGCCATGG,-0.169
20,ATCGGTTC,-0.196
21,AGCCTTCC,-0.17
22,TACGGCTA,-0.0295
23,CAGATGAG,-0.0677
24,GGGGCCAA,-0.158
25,AGAGCTGG,-0.228

row,Sequence,PBM E-score
1,GGAGCCCA,-0.272
2,GACTGTAA,0.0192
3,GCCTTTGA,-0.141
4,ACTTAGGA,-0.00398
5,GTAGTTAA,0.196
6,AGCTCCGA,-0.0948
7,CGGGCCCG,0.0314
8,CCGCTAAG,-0.182
9,AGTAGATG,0.109
10,CAGGCCAC,-0.133
11,CAGACGCG,0.0181
12,GGGAGTAA,-0.0522
13,GTGACACA,0.145
14,CTATTCAA,0.0384
15,AGGGGTAC,-0.106
16,ACCGGGAA,-0.0534
17,AGCACGCG,0.204
18,AGCTTGGC,-0.24
19,ACTCATTG,0.0239
20,GTAGCCCA,-0.0393
21,GCAGGGGA,-0.299
22,AGCCTGGC,-0.277

# Source: the supplement of paper PMC3334620
